Measured values: PubChem BioAssay AID504333 (National Center for Advancing Translational Sciences (NCATS), 2011)
In all, about 360,000 compounds went through this assay and about 16,000 (4.4%) were called active. Inconclusive means that the source gave no clear call. Such entries were picked first, then a sample of the others. Calls follow the shape of the dose curve; as a rule, active = well fitted inhibition curve with a large enough effect; inconclusive = small, poorly fitted or top-dose-only effect; inactive = no such curve, though single readings can be large or run the other way. A potency beside an inconclusive call is a rough fit, not a confirmed value.

What follows are compounds tested against Bromodomain adjacent to zinc finger domain protein 2B (Homo sapiens) (UniProt Q9UIF8) (assay: qHTS Assay for Inhibitors of BAZ2B). Details: AlphaScreen BAZ2B-H3K14Ac peptide displacement; series mostly up to 114 µM.
Method in brief: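 Inhibition is scored as reduced AlphaScreen emission. The BAZ2B/b-H3(5-23)K14Ac complex (50 nM each) in PBS pH 7.4, 0.01% Tween-20 meets compound (up to 110 uM) for 30 min at RT before bead addition.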
Also: nearly all actives have a fitted effect of over 60% in size.
Potency is read from the fitted curve at half-maximal effect; tags tell the direction and shape of the fitted curve.

Sequence of UniProt Q9UIF8 (Q9UIF8 whole entry, looked up, the tested form may be a part): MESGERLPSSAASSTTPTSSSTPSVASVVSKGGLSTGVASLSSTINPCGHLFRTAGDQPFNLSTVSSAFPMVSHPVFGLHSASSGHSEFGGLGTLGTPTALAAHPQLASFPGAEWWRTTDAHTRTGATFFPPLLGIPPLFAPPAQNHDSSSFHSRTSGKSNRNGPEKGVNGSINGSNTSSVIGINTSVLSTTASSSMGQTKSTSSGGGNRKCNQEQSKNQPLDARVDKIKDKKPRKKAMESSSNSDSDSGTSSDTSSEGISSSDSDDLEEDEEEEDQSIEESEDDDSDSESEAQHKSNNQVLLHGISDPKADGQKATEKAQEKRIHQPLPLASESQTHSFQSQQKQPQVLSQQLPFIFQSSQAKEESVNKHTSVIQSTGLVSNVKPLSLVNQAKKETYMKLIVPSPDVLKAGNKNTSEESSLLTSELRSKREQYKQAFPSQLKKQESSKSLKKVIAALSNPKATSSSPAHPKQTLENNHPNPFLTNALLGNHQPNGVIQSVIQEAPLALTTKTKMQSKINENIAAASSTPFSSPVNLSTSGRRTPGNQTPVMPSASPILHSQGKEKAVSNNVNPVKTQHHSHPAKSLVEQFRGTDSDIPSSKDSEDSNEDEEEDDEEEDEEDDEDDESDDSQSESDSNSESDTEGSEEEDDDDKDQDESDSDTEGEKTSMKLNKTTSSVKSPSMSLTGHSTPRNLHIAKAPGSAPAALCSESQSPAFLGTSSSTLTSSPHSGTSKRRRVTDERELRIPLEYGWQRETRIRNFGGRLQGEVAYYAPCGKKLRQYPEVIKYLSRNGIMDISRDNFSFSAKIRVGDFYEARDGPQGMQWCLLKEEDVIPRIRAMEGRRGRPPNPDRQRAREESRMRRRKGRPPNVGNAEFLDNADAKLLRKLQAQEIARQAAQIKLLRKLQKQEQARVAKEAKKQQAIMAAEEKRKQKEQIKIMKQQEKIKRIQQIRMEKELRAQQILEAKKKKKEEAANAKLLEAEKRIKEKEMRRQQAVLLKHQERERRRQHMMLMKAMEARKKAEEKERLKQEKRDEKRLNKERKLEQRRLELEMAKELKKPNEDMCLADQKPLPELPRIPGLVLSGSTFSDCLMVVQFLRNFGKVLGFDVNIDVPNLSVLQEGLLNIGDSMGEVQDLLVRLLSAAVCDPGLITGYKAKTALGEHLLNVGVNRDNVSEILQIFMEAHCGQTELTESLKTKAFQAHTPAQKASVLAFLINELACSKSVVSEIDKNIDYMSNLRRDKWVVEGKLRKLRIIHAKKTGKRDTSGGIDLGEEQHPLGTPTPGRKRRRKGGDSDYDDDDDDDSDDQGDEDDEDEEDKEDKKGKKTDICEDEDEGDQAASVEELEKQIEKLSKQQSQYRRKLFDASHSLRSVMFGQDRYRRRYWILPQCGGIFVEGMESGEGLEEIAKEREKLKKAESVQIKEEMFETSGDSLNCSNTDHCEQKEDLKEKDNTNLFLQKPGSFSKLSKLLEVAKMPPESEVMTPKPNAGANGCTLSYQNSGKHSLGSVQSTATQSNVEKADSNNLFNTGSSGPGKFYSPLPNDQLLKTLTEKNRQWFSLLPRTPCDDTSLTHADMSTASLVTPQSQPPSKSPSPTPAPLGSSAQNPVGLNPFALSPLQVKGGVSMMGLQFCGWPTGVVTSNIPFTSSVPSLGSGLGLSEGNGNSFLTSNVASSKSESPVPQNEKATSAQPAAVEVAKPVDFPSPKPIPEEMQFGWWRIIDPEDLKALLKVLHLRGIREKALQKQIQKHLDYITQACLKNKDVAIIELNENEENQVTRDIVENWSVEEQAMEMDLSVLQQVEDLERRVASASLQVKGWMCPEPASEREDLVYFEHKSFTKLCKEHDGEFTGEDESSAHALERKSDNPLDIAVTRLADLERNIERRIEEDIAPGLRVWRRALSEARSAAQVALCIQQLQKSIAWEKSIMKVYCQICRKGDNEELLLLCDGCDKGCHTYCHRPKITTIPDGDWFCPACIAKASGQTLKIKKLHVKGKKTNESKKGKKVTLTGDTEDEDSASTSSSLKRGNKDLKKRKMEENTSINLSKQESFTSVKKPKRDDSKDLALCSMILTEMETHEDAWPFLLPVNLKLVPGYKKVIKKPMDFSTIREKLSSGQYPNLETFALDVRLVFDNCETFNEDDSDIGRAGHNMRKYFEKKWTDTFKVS

Which Potency does the source give for `CNC[C@H](Cc1ccccc1)NC[C@@H](Cc1cccc2ccccc12)NCCc1ccc(C)cc1` here?
The Potency was inconclusive: 39.8 µM [inhibitor, partial curve].

With `Cc1ccc(S(=O)(=O)N2CCC(C(=O)NCCC3=CCCCC3)CC2)c(C)c1` as the compound, how does the Potency read?
The Potency was “inactive”.

For `Cc1cn2c(=O)c(C(=O)N3CCN(c4ccccc4)CC3)cnc2s1`, which Potency is on record?
The Potency was “inactive”.

`CC(=O)OC(C(=O)n1nc(C)cc1C)c1ccccc1` (centres undefined) was tested. Which Potency did it give?
The Potency was inconclusive: 89.1 µM [inhibitor, single point].

For `CCn1nnc(-c2ccccc2NS(=O)(=O)c2ccc(S(=O)(=O)N(C)C3CCCCC3)cc2)n1`, which Potency is on record?
The Potency was inconclusive: 5.01 µM [inhibitor, full curve].

With `Nc1nc(N)nc(Cc2ccccc2O)n1` as the compound, how does the Potency read?
The Potency was “inactive”.

With `CCCCNC(=O)CCC(=O)Nc1ncc(-c2ccc(C)cc2)n1C` as the compound, how does the Potency read?
Its Potency is inconclusive: 56.2 µM [inhibitor, partial curve].

For `CC1CCCCN1S(=O)(=O)c1ccc(C(=O)N(CCCN(C)C)c2nc3cc4c(cc3s2)OCO4)cc1` (centres undefined), which Potency is on record?
Its Potency is inconclusive: 39.8 µM [inhibitor, partial curve].

With `O=C(Nc1cccc(NC(=O)c2cncc(Br)c2)c1)c1cncc(Br)c1` as the compound, how does the Potency read?
Its Potency is “inactive”.

For `O=C(Nc1cc(S(=O)(=O)N2CCOCC2)ccc1O)c1ccc2c(c1)S(=O)(=O)c1ccccc1C2=O`, which Potency is on record?
The Potency was inconclusive: 79.4 µM [inhibitor, single point].

How did the Potency turn out when `COc1cc(SC)ccc1C(=O)N1CCN(c2ccccc2OC)CC1` was run?
Its Potency is inconclusive: 70.8 µM [inhibitor, single point].

With `CCN1CCc2c(OCC(=O)Nc3ccc(C)cc3)cccc2C1=O` as the compound, how does the Potency read?
Its Potency is “inactive”.

Which Potency does the source give for `O=C(COC(=O)c1ccccc1Br)Nc1cc(S(=O)(=O)N2CCOCC2)ccc1N1CCCC1` here?
The Potency was inconclusive: 79.4 µM [inhibitor, single point].

How did the Potency turn out when `Cc1nonc1CN(C)C(=O)CC1C(=O)NCCN1Cc1cccc(C(F)(F)F)c1` (centres undefined) was run?
The Potency was “inactive”.

For `CCOCCCNC(=O)c1[nH]c(C)c(C(C)=O)c1C`, which Potency is on record?
Its Potency is inconclusive: 79.4 µM [inhibitor, single point].

Which Potency does the source give for `O=C(Nc1nnc(-c2cccs2)o1)c1cc(-c2ccccc2)nc2ccccc12` here?
Its Potency is inconclusive: 100 µM [inhibitor, single point].

How did the Potency turn out when `O=C(NNc1cc(N2CCCC2)nc(N2CCCC2)n1)c1ccc([N+](=O)[O-])cc1` was run?
Its Potency is inconclusive: 28.2 µM [inhibitor, full curve].

`Cc1cc2cc(C(c3nnnn3C(C)(C)C)N(Cc3ccco3)CC3CCCO3)c(=O)[nH]c2cc1C` (centres undefined) was tested. Which Potency did it give?
Its Potency is inconclusive: 79.4 µM [inhibitor, single point].

`O=C(NCC1(c2ccccc2)CCCC1)c1ccco1` was tested. Which Potency did it give?
Its Potency is “inactive”.

`CCN1CCN(CCOc2ccccc2OCc2ccccc2)CC1` was tested. Which Potency did it give?
The Potency was active: 22.4 µM.

`CCOC(=O)CC(NS(=O)(=O)c1ccc2[nH]cc(C(=O)O)c(=O)c2c1)c1ccc(OCC)c(OC)c1` (centres undefined) was tested. Which Potency did it give?
The Potency was active: 28.2 µM.

`O=c1c2ccccc2nnn1CSc1nnc(Nc2ccccc2)s1` was tested. Which Potency did it give?
Its Potency is “inactive”.

`C=CCc1cc(Cl)ccc1OCCCNC(C)C` was tested. Which Potency did it give?
Its Potency is active: 56.2 µM.

Which Potency does the source give for `Cc1ncoc1C(=O)N1CCCC(C(=O)c2ccc(-c3ccccc3)c(F)c2)C1` (centres undefined) here?
The Potency was inconclusive: 35.5 µM [inhibitor, partial curve].

How did the Potency turn out when `O=[N+]([O-])c1ccc(/C=N/Nc2ccc3ccccc3c2)o1` was run?
The Potency was active: 8.91 µM.

For `CCOC(=O)c1c(C)c(C(=O)Nc2cc(OC)ccc2OC)c(C)n1CC`, which Potency is on record?
Its Potency is inconclusive: 44.7 µM [inhibitor, partial curve].

How did the Potency turn out when `O=C(CSc1ncn[nH]1)Nc1ccnc2ccccc12` was run?
The Potency was inconclusive: 89.1 µM [inhibitor, single point].

How did the Potency turn out when `O=C(CCn1cccc1)Nc1ccccc1F` was run?
The Potency was inconclusive: 89.1 µM [inhibitor, single point].

Which Potency does the source give for `O=C(CN(Cc1ccccc1)S(=O)(=O)c1ccccc1)N/N=C/c1ccccc1[N+](=O)[O-]` here?
The Potency was “inactive”.

`CNc1ncnc2ccc(-c3c(C)noc3C)cc12` was tested. Which Potency did it give?
The Potency was inconclusive: 89.1 µM [inhibitor, single point].

`Cc1ccc(NC(=O)Cn2c(CCC(=O)O)ccc2-c2cccs2)cc1Cl` was tested. Which Potency did it give?
The Potency was inconclusive: 56.2 µM [inhibitor, partial curve].

For `CC1=NOC(=O)/C1=C\c1ccc(-c2ccc(Cl)cc2Cl)o1`, which Potency is on record?
Its Potency is inconclusive: 31.6 µM [inhibitor, partial curve].

With `CC(=O)N1CC=C2C(C#N)=C(N)C(C#N)(C#N)C(CCc3ccccc3)C2C1` (centres undefined) as the compound, how does the Potency read?
The Potency was inconclusive: 100 µM [inhibitor, single point].

How did the Potency turn out when `CC(C)(C)c1ccc(NC(=S)NCCc2ccccn2)cc1` was run?
The Potency was inconclusive: 70.8 µM [inhibitor, single point].

For `COc1ccccc1CN1CCN(S(=O)(=O)c2ccccc2)CC1`, which Potency is on record?
The Potency was active: 31.6 µM.

For `CCOC(=O)CSc1nc(N)c2c3c(sc2n1)CCCC3`, which Potency is on record?
The Potency was “inactive”.

How did the Potency turn out when `Cc1ccc(NC(=O)C2CCN(S(=O)(=O)c3ccc4ccccc4c3)CC2)nc1` was run?
The Potency was inconclusive: 79.4 µM [inhibitor, single point].

With `CCOc1cc(C2C(C(=O)Nc3ccccc3)=C(C)Nc3ncnn32)cc(Br)c1O` (centres undefined) as the compound, how does the Potency read?
Its Potency is active: 79.4 µM.

Which Potency does the source give for `CC1CCN(C(=O)c2cc3c(ccc4ccccc43)o2)CC1` here?
The Potency was inconclusive: 50.1 µM [inhibitor, partial curve].

With `Cc1cc2cc(CNC(=O)c3cc4ccccc4o3)ccc2n1C` as the compound, how does the Potency read?
Its Potency is inconclusive: 39.8 µM [inhibitor, partial curve].

For `COc1ccc(NS(=O)(=O)c2cccc(-c3n[nH]c(=S)n3Cc3ccccc3)c2)cc1`, which Potency is on record?
Its Potency is inconclusive: 70.8 µM [inhibitor, single point].

Which Potency does the source give for `CCN1CCN(c2ccc(S(=O)(=O)N3CCOCC3)cc2NC(=O)c2ccc(C)cc2C)CC1` here?
Its Potency is inconclusive: 89.1 µM [inhibitor, single point].

Which Potency does the source give for `O=C(CC(NS(=O)(=O)c1ccc(Cl)cc1)c1ccco1)NCc1ccco1` (centres undefined) here?
The Potency was inconclusive: 89.1 µM [inhibitor, single point].

How did the Potency turn out when `O=C(O)c1ccc(NCc2nc3ccccc3n2Cc2ccccc2)cc1` was run?
The Potency was active: 50.1 µM.

For `COC(=O)c1cc2oc3ccccc3c2n1CC(=O)Nc1ccc(OC)c(OC)c1`, which Potency is on record?
The Potency was “inactive”.

`CCOC(=O)c1oc2ccc(CNC(C)(C)C)c(Cl)c2c1C` was tested. Which Potency did it give?
The Potency was active: 50.1 µM.

How did the Potency turn out when `CCCN1Cc2cccc(C(=O)Nc3ccc(CN4CCCC4)cc3)c2C1=O` was run?
Its Potency is inconclusive: 1 µM [inhibitor, full curve, poor fit].

For `O=C(NCCc1ccccc1)c1ccc(Cn2c(=O)c3cccn3c3cccnc32)cc1`, which Potency is on record?
The Potency was inconclusive: 79.4 µM [inhibitor, single point].

For `COc1ccc(OC)c(CNC(=O)c2ccc(Sc3ccc(Cl)cc3)c(NC(C)=O)c2)c1`, which Potency is on record?
The Potency was inconclusive: 15.8 µM [inhibitor, full curve].

For `NNc1nc(Nc2ccccc2)nc(N2CCCCC2)n1`, which Potency is on record?
The Potency was active: 79.4 µM.

With `Nc1c(-c2cccc(Cl)c2)cnn1-c1cccc([N+](=O)[O-])c1` as the compound, how does the Potency read?
Its Potency is inconclusive: 44.7 µM [inhibitor, partial curve].

With `O=C(CN1CC(=O)Oc2ccccc21)OCC(=O)c1ccc(F)cc1` as the compound, how does the Potency read?
Its Potency is active: 8.91 µM.

How did the Potency turn out when `O=C1CC(c2nc3ccccc3n2CCC2CCCCC2)CN1c1ccccc1Cl` (centres undefined) was run?
The Potency was inconclusive: 22.4 µM [inhibitor, full curve].

`Cc1ccc(OCC(=O)c2c(O)c3ccccc3oc2=O)cc1C` was tested. Which Potency did it give?
The Potency was inconclusive: 89.1 µM [inhibitor, single point].

With `CC(C)Cn1cc(NC(=O)NCc2ccccc2)c2ccccc2c1=O` as the compound, how does the Potency read?
The Potency was “inactive”.

Which Potency does the source give for `Nc1nc(N)c(N=Nc2ccc(SCC(=O)O)cc2)c(=O)[nH]1` here?
Its Potency is inconclusive: 79.4 µM [inhibitor, single point].

Which Potency does the source give for `NNC(=O)c1cc(-c2ccccc2)sc1N` here?
The Potency was inconclusive: 56.2 µM [inhibitor, partial curve].

For `CCCCC(CC)C(=O)Nc1ccc(S(=O)(=O)Nc2nccs2)cc1` (centres undefined), which Potency is on record?
Its Potency is “inactive”.

For `CCOC(=O)c1cncc(NC(=O)c2ccccc2)c1`, which Potency is on record?
The Potency was “inactive”.

How did the Potency turn out when `CC(C(=O)N/N=C/c1ccc(N(C)C)c(Br)c1)N(c1ccccc1)S(C)(=O)=O` (centres undefined) was run?
The Potency was “inactive”.

With `CN(C)c1ccc(N=Nc2nc3ccccc3n2C)cc1` as the compound, how does the Potency read?
Its Potency is active: 2.82 µM.

Which Potency does the source give for `CCc1c(C)c2cc(Cl)c(O)c(CN(C)C)c2oc1=O` here?
The Potency was “inactive”.

How did the Potency turn out when `Cc1ccc(Nc2nc3ccccc3s2)cc1` was run?
The Potency was “inactive”.

`COc1ccccc1OCC(=O)Nc1nnc(-c2ccco2)s1` was tested. Which Potency did it give?
The Potency was inconclusive: 79.4 µM [inhibitor, single point].

`O=C1C(Cc2ccc(O)cc2)NC(=S)N1Cc1ccccc1` (centres undefined) was tested. Which Potency did it give?
Its Potency is “inactive”.

For `Cc1cc(C(=O)COc2cccnc2[N+](=O)[O-])c(C)n1-c1ccccc1`, which Potency is on record?
The Potency was inconclusive: 39.8 µM [inhibitor, full curve, poor fit].

`CCN(CC)S(=O)(=O)c1ccc(C)c(NC(=O)CSc2nc3ccc(C)cc3[nH]2)c1` was tested. Which Potency did it give?
The Potency was inconclusive: 89.1 µM [inhibitor, single point].

For `COc1cccc(-c2ccc(NC(=O)C3CCCN(Cc4cnn(C)c4)C3)cc2)c1` (centres undefined), which Potency is on record?
The Potency was inconclusive: 11.2 µM [inhibitor, partial curve].

Which Potency does the source give for `CC(c1ccc(F)cc1)n1cc(C(=O)NCc2ccccn2)nn1` (centres undefined) here?
The Potency was “inactive”.

How did the Potency turn out when `Cn1c(=O)c2cc3c(nc2n(C)c1=O)CC(c1ccccc1)CC3=O` (centres undefined) was run?
The Potency was “inactive”.

For `CCSC(=O)CCCCCCCCCCCO`, which Potency is on record?
The Potency was “inactive”.

With `CC1(C)CC(=O)C/C(=N/Nc2nc3ccccc3s2)C1` as the compound, how does the Potency read?
Its Potency is inconclusive: 35.5 µM [inhibitor, full curve, poor fit].

For `Cc1cccc(N2CCN(CCNC(=O)c3cc4c(s3)CS(=O)(=O)C4)CC2)c1C`, which Potency is on record?
The Potency was “inactive”.

With `COCCn1c(=O)[nH]c(=O)c2c1nc(-c1ccc(-c3ccc(Cl)cc3[N+](=O)[O-])o1)n2Cc1ccccc1` as the compound, how does the Potency read?
The Potency was inconclusive: 8.91 µM [inhibitor, full curve].
